Data taken from PubChem BioAssay AID1963576 (National Center for Advancing Translational Sciences (NCATS), 2024).
The campaign covered roughly 46,000 compounds. About 60 (0.1%) were called active. Not shown: some 3% with an inconclusive outcome. Calls come from the whole dose curve; as a rule, active = well fitted inhibition curve with a large enough effect; inconclusive = small, poorly fitted or top-dose-only effect; inactive = no such curve, though single readings can be large or run the other way. The list shows a part of the results.

assay: Primary qHTS assay for Inhibitors of ovarian cancer metastasis using an organotypic tumor microenvironment (TME) model.; note: nearly all actives have a fitted effect of over 65% in size;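 for activity change, negative = inhibition: plate controls were DMSO wells for no effect and tomatine positive control wells for full effect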; conditions: SKOV3ip1-GFP adhesion/invasion on 3D omental model, fluorescence; series mostly up to 45.8 µM; activity change, negative = inhibition: at the top concentration
Summary of the method: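 qHTS, 4-pt dose (0.36-46 umol/L); SKOV3ip1-GFP, 1,200 cells/well, no FBS; primary omental fibroblast/mesothelial co-culture 48 h pre-grown; 2 h RT + 16 h 37 C; PBS wash, 4% PFA; GFP count 488/509 nm.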

Activity change, negative = inhibition, inactive:
CCC(=O)N1CCc2cc(Br)cc(S(=O)(=O)N3CCCC(C(=O)Nc4ccc(C(C)C)cc4)C3)c21 (stereo not given) 52.3%, COC(=O)c1ccccc1NC(=O)c1c(C)oc2ncn(C)c(=O)c12 -7.64%, CCCCC(=O)N(c1ccc2oc(C)c(C(C)=O)c2c1)S(=O)(=O)c1ccc(F)cc1C -8.14%, COc1ccc(-c2ccc(NS(=O)(=O)c3ccc(OC)c(OC)c3)cc2)nn1 -6.76%, Cc1c(C(=O)NCc2cccc(Cl)c2)sc2nc3n(c(=O)c12)CCC3 -9.86%, Cc1cn2c(=O)cc(COc3ccccc3NC(=O)c3ccco3)nc2s1 13.2%, Cc1ccc(CNS(=O)(=O)c2cc3[nH]c(=O)c(=O)[nH]c3cc2C)cc1 4.02%, CSc1nc2sc3c(c2c(=O)n1Cc1ccccc1)CCC(C(C)(C)C)C3 (stereo not given) 2.73%, Cc1ccc(C(=O)Nc2ccc3nc(SCC(=O)N4CCCc5ccccc54)sc3c2)cc1 -35.1%, O=C(COC(=O)c1cc(-c2ccccc2)nc2ccccc12)c1ccc(Br)cc1 -3.53%, CCN1CCN(CCCNC(=O)c2cnn(-c3ccc(C)cc3C)c2C2CCN(C(=O)OC(C)(C)C)CC2)CC1 -14.8%, O=S(=O)(c1ccc(Br)cc1)c1nnn2c1nc(N1CCOCC1)c1sccc12 -2.85%, CCOc1ccccc1NC(=O)CN1C(=O)COc2ccc(S(=O)(=O)NC3CCCC3)cc21 -6.51%, CCCNC(=O)c1ccc(Cn2c(=O)c3cccn3c3cccnc32)cc1 2.92%, Cc1ccc(CNC(=O)Cc2ccc(NC(=O)N3CCSc4ncccc43)cc2)cc1 -9.75%, CC(C)(C)NC(=O)N1CCC(C(=O)O)CC1 -4.26%, O=C(Nc1cccc(C(F)(F)F)c1)c1cccc(C(=O)Nc2cccc(C(F)(F)F)c2)c1 -2.67%, CCOC(=O)c1c(C)c(-c2ccccc2)n(CC(=O)Nc2cc(C)cc(C)c2)c1C -9.22%, COc1ccccc1CNC(=O)CCC1N=C2c3ccccc3N=C(SCc3ccc(Cl)cc3)N2C1=O (stereo not given) 0.375%, COc1cccc(CSc2nc(-c3ccccc3F)nc3c2Cc2c(CO)cnc(C)c2O3)c1 5.24%, COc1ccc(-n2nc3c(N4CCC(C(=O)NCCc5ccccc5)CC4)nnc(C)c3c2C)cc1 5.47%, O=C(CSc1nnc(-c2cccc(F)c2)c(-c2cccc(F)c2)n1)NC1CCCCC1 4.21%, CCOC(=O)c1c(NC(=O)COc2ccccc2Br)sc2c1CCCCC2 3.1%, Cc1ccc(-c2nnc(Nc3ccccc3)c3ccccc23)cc1S(=O)(=O)N1CCN(C)CC1 1.04%, COc1cc(Cl)c(C)cc1NC(=O)c1cnn(-c2ccc(F)cc2F)c1C1CCN(C(=O)OC(C)(C)C)CC1 38.5%, CCN(CC)S(=O)(=O)c1nnc(NC(=O)c2ccc(Br)cc2)s1 8.16%, O=C(c1cccs1)N(Cc1cccnc1)c1nc2c(F)cc(F)cc2s1 0.234%, O=S(=O)(c1ccccc1)c1nc(-c2cccc(Cl)c2)oc1N1CCOCC1 -6.15%, Cc1cc(NC(=O)Cn2c(=O)oc3cc(S(=O)(=O)N4CCCC4)ccc32)ccc1Br -3.35%, CCOC(=O)c1c(C)sc(-c2c(-c3cccc(Cl)c3)[nH]c3c2c(=O)n(C)c(=O)n3C)c1O -4.46%, CCOc1ccc(-c2cc3nc(C4CCN(C(=O)OC(C)(C)C)CC4)c(C(=O)Nc4c(C)cccc4C)cn3n2)cc1 -3.65%, Cc1ccc(CNC(=O)CCc2cn(Cc3ccc(C)cc3)c3ccccc23)cc1 -0.939%, COc1ccc(CCN2C(=O)c3[nH]nc(-c4ccccc4O)c3C2c2ccccc2)cc1 (stereo not given) 4.99%, C=Cc1ccc(Cn2ccn(-c3ccc(F)c(F)c3)c(=O)c2=O)cc1 -7.88%, COc1cccc(NC(=O)c2csnn2)c1 -0.309%, CC(=O)N1CCc2cc(CNC(=O)Nc3ccc(Br)c(C)c3)ccc21 5.73%, Fc1ccc2c(c1)-c1c(cnc3cc(-c4ccc(Cl)cc4)nn13)CO2 1.99%, Cc1c(C(=O)N(C)C)sc2c1c(=O)n(-c1ccc(F)cc1)c(=O)n2Cc1ccccc1C#N 2.63%, CC(COc1ccccc1)N(CCCl)Cc1ccccc1 (stereo not given) -8%, O=C(NCc1ccccc1F)C(=O)NCC(c1ccc2c(c1)OCO2)N1CCOCC1 (stereo not given) -8.06%

outcome, inactive:
CCOc1cc(C(=O)OCc2cc(=O)n3nc(CC)sc3n2)cc(OCC)c1OCC, COc1ccc(OCc2nc3ccccc3n2Cc2ccccc2Cl)cc1, CCOc1sc2nc(C)n(CC(=O)Nc3cccc(C)c3)c(=O)c2c1C, Cc1ccc(S(=O)(=O)NC2(C(F)(F)F)C(=O)Nc3c2c(=O)[nH]c(=O)n3-c2ccccc2)cc1 (stereo not given), NC(=O)c1nc(-c2ccc(F)c(F)c2)nc2c1[nH]c(=O)n2-c1cccc(Cl)c1, CCc1ccccc1NC(=O)c1ccc2c(c1)nnn2C1CCCC1, Cc1ccc(N2CCN(S(=O)(=O)c3ccc(Cl)c4ccccc34)CC2)c(C)c1, O=C1CCCc2cc(S(=O)(=O)NCC3CCC(C(=O)NCc4ccc(F)cc4)CC3)ccc2N1 (stereo not given), COCCCNC(=O)CCCn1c(=O)c2cccn2c2ccccc21, O=C(Cn1ncc2c(=O)oc3ccccc3c21)N1CCN(c2ccc(Cl)cc2)CC1, CC(C)(C)c1ccc(C(=O)N(Cc2ccc(F)cc2)Cc2ccco2)cc1, COc1ccc2cc(CNc3ccc(C)cc3)c(=O)n(CC(=O)Nc3cccc(Cl)c3C)c2c1, CCn1cc2nc(SCc3ccc(F)cc3)n(CCc3ccccc3)c(=O)c2n1, COc1ccc(-c2nc(CSc3nnc(C)n4c3cc3oc(C)cc34)c(C)o2)cc1OC, COc1ccc(CCNC(=O)C2CCCN(S(=O)(=O)c3ccc4c(c3)oc(=O)n4C)C2)cc1OC (stereo not given), COc1ccc(NC(=O)C2=C(C)Nc3ncnn3C2c2ccc[nH]2)cc1 (stereo not given), Cc1cc(C)c(Cn2c(=O)n(CCCCC(=O)NCc3ccccc3Cl)c(=O)c3ccccc32)c(C)c1, CCC(=O)Nc1ccccc1-c1nc2ccccc2n(C(CC)C(=O)Nc2cccc(Cl)c2)c1=O (stereo not given), CC(=O)Nc1ccc(NC(=O)C2CCN(c3cnccn3)CC2)cc1, CCc1ccccc1N(C)S(=O)(=O)c1ccc2c(c1)C(C)(C)C(=O)N2C
